Marks after values point to notes of the source that are not given here.
B1: IL29 control: IL29 wild-type protein, amino acid sequence SEQ ID NO: 1 with an additional M amino acid at the N-terminal (protein)
chain: KPTTTGKGCHIGRFKSLSPQELASFKKARDALEESLKLKNWSCSSPVFPGNWDLRLLQVRERPVALEAELALTLKVLEAAAGPALEDVLDQPLHTLHHILSQLQACIQPQPTAGPRPRGRLHHWLHRLQEAPKKESAGCLEASVTFNLFRLLTRDLKYVADGNLCLRTSTHPEST
modifications: additional N-terminal Met
B2: IL29CS (protein)
chain: MKPTTTGKGCHIGRFKSLSPQELASFKKARDALEESLKLKNWSCSSPVFPGNWDLRLLQVRERPVALEAELALTLKVLEAAAGPALEDVLDQPLHTLHHILSQLQACIQPQPTAGPRPRGRLHHWLHRLQEAPKKESAGCLEASVTFNLFRLLTRDLKYVADGNLSLRTSTHPEST

How the values were obtained:
[1] = tested on: human respiratory syncytial virus A2, RSV-A2
HEK293-ISRE-Luc cells = type: cell-based; conditions: IL29 control EC50 (0-point)/IL29 mutant EC50; IL29 control = 100%
Text: The reporter gene method refers to ligating the promoter of interferon-stimulated response element (ISRE) to alkaline phosphatase cDNA, and transfecting them into HEK293 cells, and evaluating IL29 activity by measuring alkaline phosphatase in supernatant of HEK293 cells after IL29 stimulation (LaFleur D W, Nardelli B, Tsareva T Et al. Interferon-kappa, a novel type I interferon expressed in human keratinocytes. [J]. J. Biol. Chem., 2001, 276:39765-71).
HEK293-ISRE-Luc cells (purchased from National institutes for Food and Drug Control) were allowed to grow adherently in complete culture medium. The cells were passaged at a ratio of 1:4, 2-3 times per week, growing in complete culture medium. The cultured cells were taken to discard the culture medium, and the cells were washed once with PBS and then digested and collected; and the cell suspension containing 3.5×10^5 to 4.5×10^5 cells per 1 ml was prepared with assay culture medium (BIBCO).

Molecule | Difference between the mean values (compared with the vehicle group) ([1]; Group 2: 50 mg/kg, first dose 1 h before inoculation) | RSV titer in lung tissue log10 (pfu/g lung) (Mean ± SEM) ([1]; mouse, in vivo, 50 mg/kg) | RSV replication in mice (in words) ([1]; ribavirin 1 h prior to infection, IL29 mutant 1 h prior, 1 h post and 24 h post virus infection) | Relative biological activity (%) (HEK293-ISRE-Luc cells)
NC(=O)c1ncn([C@@H]2O[C@H](CO)[C@@H](O)[C@H]2O)n1 [ribavirin] | 1.479** | 2.376 ± 0.091 (N = 4) log10 (pfu/g lung) | significantly inhibits | 
B1 |  |  |  | 100%
B2 |  |  |  | 103%

Reference: US12703728B2, “Interleukin 29 mutant protein” (priority 2020, dated 2026)
